# Measured values published in the supplement of paper PMC3334620.
# Whole data set: some 33,000 sequences, median “E-score (-0.5 to 0.5)” near -0.017, cut for the highest 2% near 0.3. The list shows a part of the results.
# Molecular target: T1, Sut1 (UniProt P53032)
# T1 sequence: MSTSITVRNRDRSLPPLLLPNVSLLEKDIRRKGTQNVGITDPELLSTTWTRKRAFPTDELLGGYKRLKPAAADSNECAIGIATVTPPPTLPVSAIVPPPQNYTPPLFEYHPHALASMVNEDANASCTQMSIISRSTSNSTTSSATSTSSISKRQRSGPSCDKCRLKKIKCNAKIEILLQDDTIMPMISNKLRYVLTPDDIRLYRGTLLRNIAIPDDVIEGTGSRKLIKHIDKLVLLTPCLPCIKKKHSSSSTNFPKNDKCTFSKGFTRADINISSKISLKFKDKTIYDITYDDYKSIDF
# Test: PBM E-score (8-mer binding enrichment) (E-score (-0.5 to 0.5)); higher = stronger / more preferred TF binding; most listed sequences are background and not binding sites
# Conditions: protein concentration: 200 nM; construct: GST-full length
# Method in brief: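 Bound GST-tagged yeast transcription factors, applied at about 100-200 nM to double-stranded universal all-10-mer Agilent arrays, were detected with fluorescent anti-GST. Scans were normalised with masliner. A modified Wilcoxon-Mann-Whitney statistic, the E-score, was assigned to each ungapped eight-base word pooled with its reverse complement by the Universal PBM Analysis Suite.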
row,Sequence,PBM E-score
1,ACATAGCT,-0.148
2,GTCTCTGA,0.0486
3,AATGTCAC,-0.0184
4,CGCTTTAA,-0.0751
5,TACATCTA,0.163
6,ACGTCCGC,-0.121
7,ACTCGAAA,0.0594
8,GAGAGACC,-0.172
9,ACAACCGT,-0.19
10,TTGACCAA,-0.0982
11,ACAACCTA,0.0115
12,ACATGGCC,-0.125
13,ATAAACTA,0.192
14,CGTAACAA,0.164
15,ACGAGTCG,-0.0772
16,CGAAGGAG,-0.0692
17,CCTGAGGC,-0.213
18,CCAGCCCA,-0.293
19,CAAACGAC,0.0628
20,AGGGCGAA,-0.139
21,AAAGCGTG,-0.131
22,TGTCGGAA,0.218

row,Sequence,PBM E-score
1,GATCGCCA,-0.111
2,GACCGGAA,0.179
3,CATCCATG,-0.207
4,CCGAACGA,0.225
5,GGGAAACA,-0.0511
6,AATGTATG,0.105
7,ATTTTTTA,0.233
8,AGCCCGCG,0.0167
9,TACTAAAA,0.207
10,TCCTCACA,0.00158
11,ACGGAGAG,0.247
12,ACCCGTCT,-0.182
13,AAATGTCA,0.0281
14,GAGAGTGA,0.0154
15,CGGAATAC,0.325
16,CATCCTAG,-0.12
17,AGGAAGAG,-0.16
18,AGGTCTCA,-0.038
19,ATCGTACA,0.168
20,ACACTCTA,0.0904
21,ACTAGTAG,0.0189
22,AGAACGAT,0.0176

row,Sequence,PBM E-score
1,CTTCGACA,-0.0366
2,ATGCGCAC,-0.146
3,GACACCTC,-0.182
4,CACTCTTA,-0.0438
5,CTTGAAAC,0.121
6,ACTCCAGA,0.0869
7,GCCCGGGC,-0.0214
8,GCGTGTCA,0.0977
9,CCCGCAAG,-0.313
10,ACACCGCA,0.0401
11,AATTTTTA,0.229
12,AACACCCG,0.0517
13,AATTAGGA,0.137
14,AAGAAGGA,0.0609
15,TGAGTGCA,-0.0681
16,GAGTCAAC,-0.0526
17,AAGGATAT,0.123
18,ATTAAGGG,-0.0806
19,CGTTTTTC,0.161
20,CCGCAGAC,0.0291
21,GACACCGC,-0.0517
22,ACAGAGGC,-0.292

row,Sequence,PBM E-score
1,ATAAGTAC,0.166
2,CCAAGGCG,-0.0929
3,GGAAGTGA,-0.0229
4,AGATTGAG,0.0927
5,AAGATGAC,-0.052
6,CAATCACC,-0.0889
7,CAAAACGC,0.11
8,CGCGCGCC,0.00566
9,ACTAAATC,0.199
10,CACACGGC,-0.0702
11,AAAGATGA,0.0367
12,CAGTATAG,0.0135
13,AATGAACT,0.11
14,TCATCCAA,0.154
15,GCAATTGA,0.104
16,CTGTTAGC,-0.031
17,GCGGGAGA,-0.204
18,AACGGGGA,0.0281
19,GCCAAGGA,-0.174
20,CGCTTTAC,-0.00074
